Values joined by “and” are separate entries in the source; they are usually repeats but may differ in a detail not shown here. Equal entries are not always repeated. Structures can show the parent of a compound that is named as a salt. In all, about 5,800 compounds went through this assay and about 620 (11%) showed activity.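 How the source made its calls: active = score above a cut-off or among the top three wells of a plate; in these data no inactive exceeds 0.85.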 The list shows a part of the results, in another mix than the full data.
Tested on: primary human hepatic stellate cells (donor 1)
Assay: scaled lipid accumulation score (0 = DMSO-like, 1 = nortriptyline-like); higher = stronger HSC inactivation (lipid re-accumulation), active = hit call of the paper
Details: 48 h
[1] = library stock concentration: 10 mM
[2] = library stock concentration: 3.33 mM
[3] = library stock concentration: 80 uM
[4] = library stock concentration: 400 uM
[5] = library stock concentration: 2 mM
[6] = library stock concentration: 1 mM

For Cn1c(NCCN(CCO)CCCc2ccc([N+](=O)[O-])cc2)cc(=O)n(C)c1=O, the “scaled lipid accumulation score” value [1] was inactive: ≤ 0.

For Cn1c(NCCN(CCO)CCCc2ccc([N+](=O)[O-])cc2)cc(=O)n(C)c1=O [Nifekalant HCl], the “scaled lipid accumulation score” value (library stock concentration: 4.9 mM) was inactive: ≤ 0.

With CCC(=O)c1ccc2c(c1)N(CCCN(C)C)c1ccccc1S2.Cl [Propionylpromazine hydrochloride] the “scaled lipid accumulation score” value [1] was active: 0.862.

With Cc1[nH]c2ccccc2c1CCNC(=O)c1cccs1 the “scaled lipid accumulation score” value [2] was inactive: ≤ -0.009 and the “scaled lipid accumulation score” value [1] was inactive: ≤ 0.

In the case of COc1ccc(OC)c2c(=S)c3ccccc3[nH]c12, the “scaled lipid accumulation score” value [1] is reported as inactive: 0.004.

For Cc1sc(N)c(C(=O)c2cccc(C(F)(F)F)c2)c1C, the “scaled lipid accumulation score” value [1] was inactive: ≤ 0 and inactive: ≤ -0.006.

For CO/N=C(\C(=O)N[C@@H]1C(=O)N2C(C(=O)OCOC(=O)C(C)(C)C)=C(/C=C\c3scnc3C)CS[C@H]12)c1csc(N)n1 [Cefditoren Pivoxil], the “scaled lipid accumulation score” value [2] was inactive: ≤ 0 and the “scaled lipid accumulation score” value [1] was inactive: ≤ 0.

With CO/N=C(\C(=O)N[C@@H]1C(=O)N2C(C(=O)OCOC(=O)C(C)(C)C)=C(/C=C\c3scnc3C)CS[C@H]12)c1csc(N)n1 [Cefditorin pivoxil] the “scaled lipid accumulation score” value [1] was inactive: ≤ -0.027.

For CCC(=O)N1CCN(c2ccc(-n3c(=O)ccc4cnc5ccc(-c6cnc7ccccc7c6)cc5c43)cc2C(F)(F)F)CC1 [Torin1], the “scaled lipid accumulation score” value [3] was inactive: ≤ 0, the “scaled lipid accumulation score” value [4] was inactive: ≤ 0 and the “scaled lipid accumulation score” value [5] was inactive: ≤ 0. For the same compound, the “scaled lipid accumulation score” value [1] was inactive: 0.098.

For CCCCCCCCCCCCCCCCC(=O)NCCO [Heptadecanoyl Ethanolamide], the “scaled lipid accumulation score” value [6] was inactive: ≤ 0.

COc1ccc(-n2[nH]c3c4c(ncc3c2=O)CCCCC4)cc1 was tested, and the “scaled lipid accumulation score” value [1] was inactive: ≤ -0.001.

With Cn1cnc(-c2cc3nccc(Oc4ccc(NC(=S)NC(=O)Cc5ccccc5)cc4F)c3s2)c1 [MGCD-265 analog] the “scaled lipid accumulation score” value [3] was inactive: 0.048, the “scaled lipid accumulation score” value [4] was inactive: ≤ -0.009 and the “scaled lipid accumulation score” value [5] was inactive: ≤ -0.009. The “scaled lipid accumulation score” value [2] was inactive: ≤ 0 and the “scaled lipid accumulation score” value [1] was inactive: ≤ 0 and inactive: 0.22.

With Cc1ccc(-c2ccc3c(ccc4sc5c(c43)NC[C@@H](C)NC5=O)n2)cn1 the “scaled lipid accumulation score” value [3] was inactive: ≤ -0.001, the “scaled lipid accumulation score” value [4] was inactive: ≤ -0.001 and the “scaled lipid accumulation score” value [5] was inactive: 0.744.

With COc1ccc(CCN(C)CCCC(C#N)(c2ccc(OC)c(OC)c2)C(C)C)cc1OC (stereo not drawn) [Verapamyl hydrochloride] the “scaled lipid accumulation score” value was inactive: 0.545.

For COc1ccc(CCN(C)CCCC(C#N)(c2ccc(OC)c(OC)c2)C(C)C)cc1OC (stereo not drawn) [Verapamil], the “scaled lipid accumulation score” value (library stock concentration: 4.4 mM) was inactive: 0.416.

For COc1ccc(CCN(C)CCCC(C#N)(c2ccc(OC)c(OC)c2)C(C)C)cc1OC (stereo not drawn) [Verapamil hydrochloride], the “scaled lipid accumulation score” value [1] was inactive: 0.587.

With COc1ccc(CCN(C)CCCC(C#N)(c2ccc(OC)c(OC)c2)C(C)C)cc1OC (stereo not drawn) [Verapamil HCl] the “scaled lipid accumulation score” value [2] was inactive: 0.332 and the “scaled lipid accumulation score” value [1] was inactive: 0.536.

Cc1onc(-c2ccccc2)c1-c1ccc(S(N)(=O)=O)cc1 [Valdecoxib] was tested, and the “scaled lipid accumulation score” value [2] was inactive: ≤ 0 and the “scaled lipid accumulation score” value [1] was inactive: 0.226 and inactive: 0.088.

In the case of Cc1onc(-c2ccccc2)c1-c1ccc(S(N)(=O)=O)cc1, the “scaled lipid accumulation score” value [1] is reported as inactive: ≤ 0.

For CCCc1cc(=O)[nH]c(=S)[nH]1 [Propylthiouracil], the “scaled lipid accumulation score” value was inactive: ≤ 0, the “scaled lipid accumulation score” value [2] was inactive: ≤ 0 and the “scaled lipid accumulation score” value [1] was inactive: ≤ 0 and inactive: 0.066.

C[N+]1(CCCCC[N+]2(C)CCCC2)CCCC1 [Pentolinium di[L(+)-tartrate]] was tested, and the “scaled lipid accumulation score” value [1] was inactive: 0.144.

C[N+]1(CCCCC[N+]2(C)CCCC2)CCCC1 [Pentolinium tartrate] was tested, and the “scaled lipid accumulation score” value [1] was inactive: 0.026.

For C[N+]1(CCCCC[N+]2(C)CCCC2)CCCC1 [Pentolinium bitartrate], the “scaled lipid accumulation score” value was inactive: ≤ 0.

With O=C(Nc1ccccc1)c1cc([N+](=O)[O-])ccc1Cl the “scaled lipid accumulation score” value [6] was inactive: ≤ 0, the “scaled lipid accumulation score” value [2] was inactive: 0.023 and the “scaled lipid accumulation score” value [1] was inactive: ≤ 0 and inactive: 0.358 and inactive: 0.105.

CC[C@]1(O)C[C@@H]2CN(CCc3c([nH]c4ccccc34)[C@@](C(=O)OC)(c3cc4c(cc3OC)N(C)[C@@H]3C45CCN4CC=C[C@](CC)([C@H]45)[C@H](OC(C)=O)[C@]3(O)C(=O)OC)C2)C1 (stereo partly drawn) [Vinblastine] was tested, and the “scaled lipid accumulation score” value [1] was active: 0.956.

In the case of CCCCCCC[N+](CC)(CC)CCCCc1ccc(Cl)cc1 [Clofilium tosylate], the “scaled lipid accumulation score” value is reported as inactive: ≤ 0.

For CCOC(=O)C1=C[C@@H](OC(CC)CC)[C@H](NC(C)=O)[C@@H](N)C1 [Oseltamivir], the “scaled lipid accumulation score” value (library stock concentration: 6.4 mM) was inactive: ≤ 0.

In the case of CCOC(=O)C1=C[C@@H](OC(CC)CC)[C@H](NC(C)=O)[C@@H](N)C1, the “scaled lipid accumulation score” value [1] is reported as inactive: 0.074.

CCOC(=O)C1=C[C@@H](OC(CC)CC)[C@H](NC(C)=O)[C@@H](N)C1 [Oseltamivir tartrate] was tested, and the “scaled lipid accumulation score” value [1] was inactive: 0.11.

With C[C@]12CCC(=O)C=C1CC[C@@H]1[C@@H]2[C@@H](O)C[C@@]2(C)[C@H]1CC[C@]2(O)C(=O)CO the “scaled lipid accumulation score” value [1] was inactive: 0.065.

C[C@]12CCC(=O)C=C1CC[C@@H]1[C@@H]2[C@@H](O)C[C@@]2(C)[C@H]1CC[C@]2(O)C(=O)CO [Hydrocortisone base] was tested, and the “scaled lipid accumulation score” value was inactive: 0.178.

C[C@]12CCC(=O)C=C1CC[C@@H]1[C@@H]2[C@@H](O)C[C@@]2(C)[C@H]1CC[C@]2(O)C(=O)CO [Hydrocortisone] was tested, and the “scaled lipid accumulation score” value [2] was inactive: ≤ 0 and the “scaled lipid accumulation score” value [1] was inactive: 0.137 and inactive: 0.029 and inactive: ≤ 0.

CC(=O)N(O)[C@@H]1c2cc(C#N)ccc2OC(C)(C)[C@H]1O was tested, and the “scaled lipid accumulation score” value [1] was inactive: ≤ 0.

O=C(CCc1ccc(O)cc1)c1c(O)cc(O)cc1O[C@@H]1O[C@H](CO)[C@@H](O)[C@H](O)[C@H]1O [Phlorizin] was tested, and the “scaled lipid accumulation score” value [2] was inactive: ≤ 0 and the “scaled lipid accumulation score” value [1] was inactive: ≤ 0.

In the case of S=C(S)OC1CC2CC1C1CCCC21 [D-609 potassium], the “scaled lipid accumulation score” value [1] is reported as inactive: ≤ 0.

CN(N=O)C(=O)NC1C(O)OC(CO)C(O)C1O (stereo not drawn) [Streptozotocin (STZ)] was tested, and the “scaled lipid accumulation score” value [2] was inactive: ≤ 0 and the “scaled lipid accumulation score” value [1] was inactive: ≤ 0.

With Oc1ncnc2[nH]ncc12 [Allopurinol] the “scaled lipid accumulation score” value [2] was inactive: 0.012, the “scaled lipid accumulation score” value [1] was inactive: ≤ 0 and inactive: 0.008 and inactive: 0.121 and the “scaled lipid accumulation score” value (library stock concentration: 14.7 mM) was inactive: ≤ 0 and inactive: ≤ -0.001.

O=[N+]([O-])c1ccc(-c2nc(-c3ccc(F)cc3)c(-c3ccncc3)[nH]2)cc1 was tested, and the “scaled lipid accumulation score” value [6] was inactive: ≤ 0, the “scaled lipid accumulation score” value [2] was inactive: ≤ 0 and the “scaled lipid accumulation score” value [1] was inactive: ≤ -0.044.

Cc1c(OCC(F)(F)F)ccnc1C[S@@+]([O-])c1nc2ccccc2[nH]1 was tested, and the “scaled lipid accumulation score” value [1] was inactive: ≤ 0.

For Cc1c(OCC(F)(F)F)ccnc1C[S@@+]([O-])c1nc2ccccc2[nH]1 [Dexlansoprazole], the “scaled lipid accumulation score” value [2] was inactive: ≤ 0 and the “scaled lipid accumulation score” value [1] was inactive: ≤ -0.001.

In the case of COc1ccc(CCN(C)CCCN2CCc3cc(OC)c(OC)cc3CC2=O)cc1OC [Zatebradine hydrochloride], the “scaled lipid accumulation score” value [1] is reported as inactive: 0.013.

Cc1ccc(C(=O)Nc2cccc(C(F)(F)F)c2)cc1Nc1cncc(C(N)=O)c1 was tested, and the “scaled lipid accumulation score” value [3] was inactive: ≤ 0, the “scaled lipid accumulation score” value [4] was inactive: 0.035 and the “scaled lipid accumulation score” value [5] was inactive: ≤ 0. For the same compound, the “scaled lipid accumulation score” value [1] was inactive: 0.142.

With Cc1cc(O)c2c(c1)C(=O)c1cccc(O)c1C2=O [Chrysophanic Acid] the “scaled lipid accumulation score” value [2] was inactive: ≤ 0 and the “scaled lipid accumulation score” value [1] was inactive: ≤ 0.

For NC(=O)c1cn(Cc2c(F)cccc2F)nn1 [Rufinamide], the “scaled lipid accumulation score” value [2] was inactive: ≤ 0 and the “scaled lipid accumulation score” value [1] was inactive: ≤ 0 and inactive: 0.003.

CC(C(=O)O)c1ccc(-c2ccccc2)c(F)c1 (stereo not drawn) [Flurbiprofen] was tested, and the “scaled lipid accumulation score” value was inactive: ≤ 0, the “scaled lipid accumulation score” value [2] was inactive: ≤ 0 and the “scaled lipid accumulation score” value [1] was inactive: ≤ 0 and inactive: 0.018.

In the case of CC(C(=O)O)c1ccc(-c2ccccc2)c(F)c1 (stereo not drawn) [(?)-Flurbiprofen], the “scaled lipid accumulation score” value [6] is reported as inactive: ≤ 0.

For O=C(NC1CCN(CCCCC2(C(=O)NCC(F)(F)F)c3ccccc3-c3ccccc32)CC1)c1ccccc1-c1ccc(C(F)(F)F)cc1 [Lomitapide], the “scaled lipid accumulation score” value [2] was active: 1.05.

With NC(N)=NC(N)=Nc1cccc(Cl)c1 [1-(m-Chlorophenyl)-biguanide hydrochloride] the “scaled lipid accumulation score” value [1] was inactive: ≤ -0.063.

For NC(N)=NC(N)=Nc1cccc(Cl)c1 [m-Chlorophenylbiguanide hydrochloride], the “scaled lipid accumulation score” value [1] was inactive: ≤ 0.

For COc1cc2ncnc(Nc3ccc(NC(=O)c4ccccc4)cc3)c2cc1OC [Aurora Kinase Inhibitor II], the “scaled lipid accumulation score” value [2] was inactive: ≤ 0.

C[C@H]1O[C@@H](O[C@H]2[C@@H](O)C[C@H](O[C@H]3[C@@H](O)C[C@H](O[C@H]4CC[C@@]5(C)[C@H](CC[C@@H]6[C@@H]5C[C@@H](O)[C@]5(C)[C@@H](C7=CC(=O)OC7)CC[C@]65O)C4)O[C@@H]3C)O[C@@H]2C)C[C@H](O)[C@@H]1O [Digoxin] was tested, and the “scaled lipid accumulation score” value was active: 1.03, the “scaled lipid accumulation score” value [2] was active: 1.11 and the “scaled lipid accumulation score” value [1] was active: 0.888.

With COc1cc([S+](C)[O-])ccc1-c1nc2cccnc2[nH]1 (stereo not drawn) [Sulmazole] the “scaled lipid accumulation score” value was inactive: ≤ 0.

With CCCCc1cc2ccccc2c(OCCN(C)C)n1 [Dimethisoquin hydrochloride] the “scaled lipid accumulation score” value was inactive: 0.71.

In the case of CC(C(=O)O)c1ccc2c(c1)[nH]c1ccc(Cl)cc12 (stereo not drawn) [Carprofen], the “scaled lipid accumulation score” value [2] is reported as inactive: ≤ 0, the “scaled lipid accumulation score” value (library stock concentration: 7.3 mM) is reported as inactive: ≤ 0 and the “scaled lipid accumulation score” value [1] is reported as inactive: ≤ -0.001 and inactive: ≤ 0.

For C=CCc1cccc(/C=N/NC(=O)CN2CCN(Cc3ccccc3)CC2)c1O, the “scaled lipid accumulation score” value [6] was inactive: ≤ 0, the “scaled lipid accumulation score” value [2] was inactive: ≤ 0 and the “scaled lipid accumulation score” value [1] was inactive: ≤ 0 and inactive: 0.215 and inactive: 0.547.

With CC(NC(=O)C(Cc1ccccc1)NC(=O)OCc1ccccc1)C(=O)CF (stereo not drawn) the “scaled lipid accumulation score” value [2] was inactive: ≤ -0.009 and the “scaled lipid accumulation score” value [1] was inactive: 0.426.

In the case of Cc1cccc(C)c1NC(=O)C(C)N (stereo not drawn) [Tocainide hydrochloride], the “scaled lipid accumulation score” value is reported as inactive: ≤ 0 and the “scaled lipid accumulation score” value [1] is reported as inactive: ≤ -0.07.

Cc1cccc(C)c1NC(=O)C(C)N (stereo not drawn) was tested, and the “scaled lipid accumulation score” value [1] was inactive: ≤ 0.

Reference: the supplement of paper PMC9135407
